Assay results from the supplement of paper PMC11417369.
This is one part of the list.

test system: PfAP2-HC AP2 domain (GST-tagged); test: gcPBM binding intensity (ln(normalized median fluorescence intensity)); higher = stronger DNA binding
Summary of the method: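 The highest Masliner-normalised natural-log median intensity across replicate spots of either probe orientation is reported as binding intensity. GST-tagged P. falciparum DNA-binding domains expressed in E. coli were applied for 1 h to an Agilent 4 × 180k array of primer-extended double-stranded 36-bp intergenic genomic probes plus negative controls, and bound protein was detected with Alexa488 anti-GST antibody and scanned at 488 nm.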

| Sequence | gcPBM binding intensity (ln) |
| --- | --- |
| ATGTTGTACAAACACACACACAAAAAAAAAATAAAA [CACACA_site2406] | 10.8 |
| ATATATATATGTGGATGTACATATATCTCTTATTAT [XGTACX_site1748] | 9.81 |
| AATTATTAAATATGTACACACGTACATTTTATAAAT [CACACA_site5341] | 9.71 |
| AGTACATTATAGAATACACACCTATATATATATATA [CACACA_site4447] | 10.2 |
| TATTTTGTTCTTTCCACACACAAATACATATATTGT [CACACA_site4071] | 10.3 |
| TAATACATACACACATGTACATACAGAAATAAATAA [XGTACX_site3245] | 10.1 |
| AAAAAGAAGAAGAAATGTACGTAACTATATATTTAT [XGTACX_site4362] | 9.69 |
| TTTTACATAAATTATAAATATATAAAATAAAAAAAA [CACACA_negctrl_site1499] | 9.49 |
| TTAATATTCCAGCTTTGTACATATATATATTATAAA [XGTACX_site7954] | 9.55 |
| TGGCTTTCCCTGCCGGTGCATTAACATTTTTTACAT [GTGCAC_site9914] | 9.72 |
| TTAATGGAAAAATAGGCACACACACCGATATACATA [CACACA_site8356] | 10.3 |
| CATATATATATTTTTTGTACATATATTTTTACATAT [XGTACX_site8419] | 10.1 |
| AATTCAATTGAGCAAAATTCAAATAAATTAAAAAGA [XGTACX_negctrl_site71] | 9.63 |
| CAAAAATAATTTAGGTGTACAAATTTGACAAAAAAA [XGTACX_site188] | 9.79 |
| ATGAAACACTCCATAGTGCAAAATATATATTATATT | 9.72 |
| CTATTTTTCCTGAAATGTACAAGAATTTTATTTGAT [XGTACX_site8867] | 9.49 |
| TGATAATATTATATATGTACATATATGTATATTTTT [XGTACX_site7193] | 9.74 |
| ATATGGGTGAACATATGTACATATATATATTGATAA [XGTACX_site8438] | 9.68 |
| TTGGTATATTATAAAAGTACACATAATAAAAAATTT [XGTACX_site7985] | 9.57 |
| CCTAAAGTGTAAAATTCACACACATATATATATATA [CACACA_site8385] | 9.89 |
| TTTATTTATAGGTATACACACTTTAATTAAAAGTTG [CACACA_site7232] | 9.53 |
| TTTATTTTTGAAGTTGCACACACAAAAATAAAAAGT [CACACA_site8030] | 9.76 |
| ATTAAAAAAATATACGCACACAAAATGTAATAACAA [CACACA_site2439] | 10.1 |

| Sequence | gcPBM binding intensity (ln) |
| --- | --- |
| TAATTTGTTATGTATTGTACAAATAATATATGATAT [XGTACX_site1985] | 9.6 |
| TTTTGTTTAAAAAAAAAAAACAAAAAAAAGCAATTA [CACACA_negctrl_site314] | 9.38 |
| TTACATAATTTATGTACACACGCAAATACTTATAAT [CACACA_site4331] | 9.76 |
| ATTTTTCATTCTGGACATGTTACCATTATATATATG [CACACA_negctrl_site61] | 10 |
| ATAACTATAATAATCATACACACCAAAGAGAATATT [CACACA_site6970] | 10.2 |
| ATTATTACTTTTTGAGTGCACATACACACAGACATA | 9.81 |
| AGTAGTCTGGAGAAGAGTACACAGTATCTGGTAGCT [XGTACX_site2042] | 9.59 |
| ACATTAACATTGTTGGTGCAAAATTAATATGTTTTT [GTGCAC_site9673] | 9.59 |
| TTAAATATTTTTTATACACACATTTCTTATTTAACT [CACACA_site229] | 9.8 |
| TAATTATTATTAATAGTACACACTATGGCATTTCAA [CACACA_site2488] | 9.63 |
| CAAACATATTAATGTACACACACCCACCCACAAACA [CACACA_site2752] | 10.4 |
| TTTTTTTCAATATTTGCACACGATTAAAATATTTAA [CACACA_site5266] | 9.63 |
| TATTATATATATATATGTACATATTGTATGTTATAT [XGTACX_site5303] | 9.99 |
| TATGTGAATATTGAGGTGCGGTTGTTAAAATTTATA [GTGCAC_site9915] | 9.76 |
| TATATGTAATATTATACATGCATACATAATATATAT [TGCATGCA_site558] | 9.67 |
| TTTTTTTTTTATAAGGCACACATGAATATTTATACA [CACACA_site1316] | 9.59 |
| TATGTGAATATAATCACACACAATACGGAAAGAGAC [CACACA_site7311] | 11.2 |
| ACCCACGTAAATTAAGCATGCCTTCCGTTATATTTA [TGCATGCA_site365] | 9.84 |
| TTTTACTAAATATATACACACATTATGCATATATAT [CACACA_site3287] | 9.92 |
| TTTTAAAGAAAAAAATGTACAAAATTTTTATTTTAA [XGTACX_site1496] | 9.02 |
| AATGTGATAATATACACACACGCATATATATATATA [CACACA_site323] | 9.88 |
| CTGTGTAATTTAAATTGTACGTTTGAAAAAAATAAA [XGTACX_site5667] | 9.51 |
| AAAACACTTATGGATTGTACAATAAAAATTATATTA [XGTACX_site7042] | 9.92 |

| Sequence | gcPBM binding intensity (ln) |
| --- | --- |
| TTCTGTGTGTATTGGCGTACAATTATTTTGCCTACA [XGTACX_site205] | 9.82 |
| ACATTCACAAAATTTTGTACACATATATATATATAT [XGTACX_site3518] | 9.96 |
| GTATTATCTGCTTTTTGTACACATATATTTAAAAAA [XGTACX_site7603] | 9.66 |
| TTTATTTATTAAGAATGTACATGTATTTGTTAAATA [XGTACX_site4465] | 9.4 |
| TAAATCATGGGATAAGCATGCGCGCACATGTTTGTT [TGCATGCA_site768] | 9.75 |
| CGATTTTTTAAGTTTGTGCACTTAAAAACTATAACA | 9.43 |
| CCATTTGATAATAATGCACACCACATATATTTATAT [CACACA_site9002] | 9.93 |
| AAAAGGAATTATAGGAAATAAATATATACAAATATA [TGCATGCA_negctrl_site528] | 9.68 |
| TATACTATACAACACATACACACAAAAAAAAAAAAA [CACACA_site537] | 9.98 |
| TATATGTCAATATCTACACACATATAGGTAATTATT [CACACA_site7475] | 10 |
| TATTTCAAAATAAAATAAAATATATATATATGTATA [XGTACX_negctrl_site416] | 9.3 |
| ATATAATATTGAGTTTGTACATATATATATGAAGAT [XGTACX_site4444] | 9.7 |
| AATTATGCATTTGTCACACATATATATTACACTTGC [CACACA_site5324] | 9.91 |
| AAAAAAAAAAAAAAATGTACATTATACACATTATAT [XGTACX_site6824] | 9.66 |
| TAGCCAAAATATAATTTACACACTTATTAAATAATT [CACACA_site7963] | 9.5 |
| ATTTTCCCTTGTTTTACACACGTGCTGATATGAGAT [CACACA_site2164] | 9.91 |
| AAATAAATATATATATGTACATACAAATACACGGTA [XGTACX_site8510] | 9.86 |
| AAGAAAAATGTCATATGATATCATATATTTTATAAT [TGCATGCA_negctrl_site296] | 9.57 |
| TATATAAATAGACACACACACACATATAAATAAATA [CACACA_site7855] | 10.7 |
| TTTCAATGCATAAAAGTGCGCAATAATTTAAAGATC | 9.81 |
| TATTTTATAAATACAAGTAAAATTAAATATATAATA [XGTACX_negctrl_site221] | 9.45 |
| AGGAGGATATTACACAGTACCCAGGAAATCTACGGA [XGTACX_site4878] | 9.54 |
| TTGTACTACAATCCTTTATTTATTTAAACCTGTATG [CACACA_negctrl_site428] | 9.51 |

| Sequence | gcPBM binding intensity (ln) |
| --- | --- |
| ATAATATATATTAATACACACACACCGATATATATA [CACACA_site9261] | 10.4 |
| GACCAATACTTTAAAAGTACAAACCTTATTTTATTT [XGTACX_site2718] | 9.77 |
| AAAAAAAAATAAAATAAAATAAAATAAAATAATATA [CACACA_negctrl_site1798] | 9.59 |
| AAACAAATGTACAAAGTGCATATTTTTTTCAAAAGG | 9.71 |
| ACATATGTATAATAATGTACGCATTAAATATAATTA [XGTACX_site7851] | 9.99 |
| ATATATATATAATAAAGTACAAATTCTAAATGATAT [XGTACX_site570] | 9.79 |
| TATCTTATGTCTGAAAGTACAAATTTTTTTCTACTT [XGTACX_site2208] | 9.65 |
| ACTACGAATGGTAGAGTGCAGTCTGGAGAAAAGTAC [GTGCAC_site9681] | 9.71 |
| CTTTTTTTTTTTTTTGCGCACTGTTTAAAGGGAAAT [GTGCAC_site9815] | 9.71 |
| ATTATCTATCGTTTTTGTACTTACACCTTAATACAA [XGTACX_site7337] | 9.78 |
| AAATATTTTTAGAGTGCATGTAATAAAAATATAATG [TGCATGCA_site19] | 9.66 |
| GGGATATATTATTATACACACATATATAAAAGCTTT [CACACA_site2445] | 9.81 |
| TTAATTATATCAGGACGTACTAATATAAATATATAT [XGTACX_site8909] | 9.53 |
| AAATGAGATATAAAATGTACATATTGTAAGTAAACA [XGTACX_site1237] | 9.9 |
| GTGCAAAATATTTTTACACACAAATTTTTACAACAG [CACACA_site3357] | 9.81 |
| AAAAATAAATAAGACACACACAAAAAAAAAAAAAAA [CACACA_site1432] | 9.87 |
| ATATATATATATATATATATATATATATATTATATA [XGTACX_negctrl_site48] | 9.27 |
| AAATAATATATTCTATATAATAAATTATAAATATAA [GTGCAC_negctrl_site558] | 9.53 |
| ATATGACTGTTCATTTGTACGTATAATTATATACGT [XGTACX_site3372] | 9.61 |
| ATACAACTAATAAGTAGTACAATATACATATATTAT [XGTACX_site7086] | 9.72 |
